# In article PMC11570452, “MOTS-c modulates skeletal muscle function by directly binding and activating CK2” (iScience, 2024):
# The chains behind the UniProt entries cited, without tags or fusion partners.
# UniProt P67870: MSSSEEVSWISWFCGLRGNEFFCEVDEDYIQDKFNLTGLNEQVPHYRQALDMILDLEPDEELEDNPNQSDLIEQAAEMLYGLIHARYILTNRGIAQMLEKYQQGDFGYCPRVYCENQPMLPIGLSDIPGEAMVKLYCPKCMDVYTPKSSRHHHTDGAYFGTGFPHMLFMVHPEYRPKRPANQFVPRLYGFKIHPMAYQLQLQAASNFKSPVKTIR
# No constants are given. Whether binding was seen depends on the method and setting. For some assays here: Binding seen in cells or lysates may run through a third protein. Some results given as binding are weak or reduced against the parent protein; the word gives no strength.
# T1: CK2α, endogenous in mouse tissues (mouse (endogenous in C57BL/6J gastrocnemius muscle, epididymal fat, liver)) (UniProt Q60737)
# T1 sequence: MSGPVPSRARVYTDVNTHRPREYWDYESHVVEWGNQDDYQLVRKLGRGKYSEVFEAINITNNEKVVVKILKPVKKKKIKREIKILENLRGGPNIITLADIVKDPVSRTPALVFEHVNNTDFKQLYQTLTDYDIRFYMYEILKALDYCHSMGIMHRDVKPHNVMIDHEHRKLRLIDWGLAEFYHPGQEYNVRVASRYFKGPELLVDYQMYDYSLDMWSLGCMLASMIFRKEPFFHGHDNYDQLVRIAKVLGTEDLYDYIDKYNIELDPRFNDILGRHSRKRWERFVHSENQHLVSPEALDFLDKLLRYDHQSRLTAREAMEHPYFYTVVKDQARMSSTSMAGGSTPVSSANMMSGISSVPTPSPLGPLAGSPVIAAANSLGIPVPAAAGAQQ
# What was measured:
# [1] = target: T1, CK2α, endogenous in mouse tissues (mouse (endogenous in C57BL/6J gastrocnemius muscle, epididymal fat, liver)); experiment: co-IP; CK2α antibody on Dynabeads Protein G; RIPA lysate (2 mg protein) of gastrocnemius muscle and epididymal fat of mice 30 min after MOTS-c (7.5 mg/kg) or none; blot with MOTS-c antibody
# [2] = target: T1, CK2α, endogenous in mouse tissues (mouse (endogenous in C57BL/6J gastrocnemius muscle, epididymal fat, liver)); experiment: co-IP; as a4, but lysate of liver of mice 30 min after MOTS-c (7.5 mg/kg) or none
# CK2β (recombinant, IBL) = CK2β (recombinant, IBL) (UniProt P67870); experiment: far-Western, overlay or dot blot; CK2 complex (0-1000 units), CK2α or CK2β (0-210 ng) dotted on nitrocellulose; MOTS-c 5 μg/mL in SuperBlock (PBS) flowed over, 30 min, room temperature; detected by MOTS-c antibody; both purified
# [3] = target: CK2 complex (Casein Kinase II; contains both CK2α and CK2β subunits) (UniProt P68400); experiment: as above
# [4] = target: CK2α (recombinant, GenScript) (UniProt P68400); experiment: as above
binder,measurement,setting,value
"MRWQEMGYIFYPRKLR [MOTS-c (mitochondrial open reading frame of the 12S ribosomal RNA type-c), wild type]",binding,[1],binds
same,binding,[2],no binding (condition: in liver)
same,binding,"CK2β (recombinant, IBL)",no binding (tested: 5 μg/mL)
same,binding,[3],binds
same,binding,[4],binds
